# Reference: PubChem BioAssay AID588342 (National Center for Advancing Translational Sciences (NCATS), 2011)
# Several values for one entry are separate records, joined by “and”; a condition that tells them apart may be missing. Equal values may be shown once. Screen size: about 360,000 compounds; about 25,000 (6.9%) were called active. The shares of active, inactive and inconclusive entries below differ from those in the screen. Calls come from the whole dose curve; as a rule, active = well fitted inhibition curve with a large enough effect; inconclusive = small, poorly fitted or top-dose-only effect; inactive = flat fitted curve, though single readings scatter. Potencies of inconclusive entries are doubtful fits and often do not repeat.
# Target: Luciferin 4-monooxygenase (Photinus pyralis) (UniProt P08659)
# Test: qHTS profiling assay for firefly luciferase inhibitor/activator using purifed enzyme and Km concentrations of substrates (counterscreen for miR-21 project); note: nearly all actives have a fitted effect of over 55% in size
# Settings: purified FLuc, luminescence inhibition; series mostly up to 57.5 µM
# Outline: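 Purified P. pyralis luciferase, 10 nM final, with Km-level 10 uM D-luciferin and 10 uM ATP in 50 mM Tris acetate pH 7.5, 10 mM Mg acetate, 0.01% Tween-20, 0.05% BSA; 6-point qHTS titration about 60 µM downward; luminescence read.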
# Potency is the fitted concentration of half-maximal effect; tags give direction and shape of the fitted curve.
# Sequence of UniProt P08659 (P08659 whole entry, looked up): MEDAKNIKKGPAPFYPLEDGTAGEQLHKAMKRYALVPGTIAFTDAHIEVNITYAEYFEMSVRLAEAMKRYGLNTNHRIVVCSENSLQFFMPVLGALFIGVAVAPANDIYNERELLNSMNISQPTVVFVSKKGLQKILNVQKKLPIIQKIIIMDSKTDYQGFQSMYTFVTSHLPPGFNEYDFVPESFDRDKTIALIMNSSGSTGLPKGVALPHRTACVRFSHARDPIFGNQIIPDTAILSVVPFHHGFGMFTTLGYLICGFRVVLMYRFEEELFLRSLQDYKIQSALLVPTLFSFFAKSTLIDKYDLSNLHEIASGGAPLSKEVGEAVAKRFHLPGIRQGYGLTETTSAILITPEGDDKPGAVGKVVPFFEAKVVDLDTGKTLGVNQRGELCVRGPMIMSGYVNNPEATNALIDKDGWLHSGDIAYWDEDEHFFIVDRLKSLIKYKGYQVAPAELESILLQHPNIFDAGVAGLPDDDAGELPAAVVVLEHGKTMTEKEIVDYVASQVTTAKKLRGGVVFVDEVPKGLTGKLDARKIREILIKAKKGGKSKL
row,Structure (SMILES),Potency
1,Cc1ccc(C(C)C)c(OCCSc2nc(-c3cccs3)nc3cc(=O)[nH]n23)c1,"inconclusive: 23.9 µM [inhibitor, single point]"
2,CC(C)Cc1nnc(NC(=O)Nc2ccccc2)s1,active: 16.9 µM
3,Cc1ccc(-n2c(=S)[nH]c3sc4c(c3c2=O)CCC4)cc1,"inconclusive: 15.1 µM [inhibitor, partial curve, poor fit]"
4,Cc1cc(Nc2ccc(N(C)C)cc2)n2ncnc2n1,active: 16.9 µM
5,Cn1c(COc2ccccc2)nnc1SCC(=O)Nc1ccc(N2CCOCC2)cc1,"inconclusive: 16.9 µM [inhibitor, partial curve]"
6,COc1ccc(-c2ccc(=O)n(CC(=O)Nc3ccc(N(C)C)cc3)n2)cc1,"inconclusive: 16.9 µM [inhibitor, partial curve, poor fit]"
7,CCC(Oc1ccccc1)C(=O)Nc1nnc(C(F)(F)F)s1 (configuration not stated),inactive
8,CCOc1ccccc1CNC(=O)Cn1nc(C)c2nn(-c3ccc(Cl)cc3)c(C)c2c1=O,inactive
9,COc1cccc(-n2cnc3sc(C)c(C)c3c2=O)c1,"inconclusive: 26.9 µM [inhibitor, single point]"
10,CCOc1ccc(-c2nnn(CC(=O)c3ccc4c(c3)OCCO4)n2)cc1,"inconclusive: 19 µM [inhibitor, partial curve]"
11,COc1ccccc1Nc1nc2ccccc2n1C,active: 15.1 µM
12,Cc1ccc(NC(=O)CN(C)S(=O)(=O)c2cccc3cccnc23)cc1C,"inconclusive: 37.9 µM [inhibitor, partial curve, poor fit]"
13,Cc1ccc(NC(=O)N2CCCC(C(=O)O)C2)cc1 (configuration not stated),"inconclusive: 26.9 µM [inhibitor, partial curve, poor fit]"
14,Cc1cccc(OCC(=O)NCc2ccc3c(c2)CCN3C(=O)c2ccccc2)c1,"inconclusive: 30.1 µM [inhibitor, partial curve, poor fit]"
15,O=C(Nc1cccc(Cl)c1)NC1CC2CCC(C1)N2Cc1ccco1 (configuration not stated),inactive
16,Cc1ccccc1NC(=O)c1ccccc1NC(=O)c1ccccc1F,"inconclusive: 21.3 µM [inhibitor, single point] and inconclusive: 16.9 µM [inhibitor, partial curve]"
17,CC(C)(C)OC(=O)N/N=C/c1cc(N=Nc2ccccc2)ccc1O,"inconclusive: 7.57 µM [inhibitor, full curve]"
18,O=C(Nc1cccnc1)Nc1cc(Cl)cc(Cl)c1,"inconclusive: 30.1 µM [inhibitor, single point]"
19,COc1cc(-c2nc3ccccn3c2/N=C/c2ccccc2)ccc1O,"inconclusive: 26.9 µM [inhibitor, single point]"
20,O=C(CCN1C(=O)/C(=C/c2ccco2)SC1=S)Nc1ccc(C(=O)O)c(O)c1,active: 7.57 µM
21,CCOc1ccc(CCNC(=O)COC(=O)COc2ccc(C(=O)CC)cc2)cc1OCC,"inconclusive: 37.9 µM [inhibitor, partial curve, poor fit]"
22,O=C(Nc1ccc2c(c1)OCO2)Nc1ccccc1F,active: 2.39 µM
23,Cc1ccc(NC(=O)c2cccc(S(C)(=O)=O)c2)cc1,"inconclusive: 26.9 µM [inhibitor, single point]"
24,COc1ccc(OC)c(CNc2ncc(-c3ccc(F)cc3)n2C)c1,inactive

row,Structure (SMILES),Potency
1,CCC1(c2ccc(Cl)cc2)NC(=S)N(c2ccc(C)cc2)N1 (configuration not stated),active: 16.9 µM
2,CNc1ccc(/C=C2\CSc3ccccc3C2=O)cc1[N+](=O)[O-],active: 0.757 µM
3,CCN(CC)S(=O)(=O)c1ccc(C)c(NS(=O)(=O)c2cc(/C=C/C(=O)O)cc(OC)c2OC)c1,"inconclusive: 37.9 µM [inhibitor, partial curve, poor fit]"
4,Cc1ccc(NC(=O)c2ccc(N3C(=O)C4CC=C(Cl)CC4C3=O)cc2)cc1 (configuration not stated),inactive
5,CCOCCCn1c(NN)nc2ccccc2c1=O,inactive
6,Nc1c(-c2ccccn2)cnn1-c1nc(-c2ccc(F)cc2)cs1,active: 9.53 µM
7,O=C(CSC1=Nc2ccccc2C2=NC(CCC(=O)NC3CCCCC3)C(=O)N12)Nc1cccc(Cl)c1 (configuration not stated),inactive
8,CC1(C)Cc2c(c(N3CCOCC3)nc3sc4c(NN)ncnc4c23)CS1,inactive
9,CC(=O)Nc1ccc(C(=O)OCc2ccccc2Cl)cc1,"inconclusive: 23.9 µM [inhibitor, partial curve]"
10,CC1(C)Cc2nc3sc4c(N(CCO)CCO)ncnc4c3cc2CO1,"inconclusive: 26.9 µM [inhibitor, partial curve]"
11,O=C(O)Cn1c2c(c3ccccc31)CSc1ccc(Cl)cc1-2,"inconclusive: 26.9 µM [inhibitor, single point]"
12,O=C(O)c1cccc(-c2noc(-c3cccc(Cl)c3)n2)c1,active: 75.7 nM and active: 19 nM
13,NNC(=O)c1sc2cc(C(F)(F)F)cnc2c1-c1ccccn1,inactive
14,COc1cc(/C=C/c2nnc3c4ccccc4ncn23)cc(OC)c1OC,"inconclusive: 19 µM [inhibitor, single point]"
15,Oc1cccc(Nc2nc(-c3ccccc3)nc3ccccc23)c1,"inconclusive: 37.9 µM [inhibitor, single point]"
16,COc1cc2c(ccc3cc(OC)c(OC)c(O)c32)cc1O,"inconclusive: 16.9 µM [inhibitor, partial curve, poor fit]"
17,Cn1c(=O)c2c(SCC(=O)NCC3CCCO3)nc(-c3ccccc3F)nc2n(C)c1=O (configuration not stated),inactive
18,CCCCC(=O)NC(=S)Nc1cccc(NC(=O)c2ccccc2)c1,"inconclusive: 42.6 µM [inhibitor, partial curve, poor fit]"
19,COc1ccccc1Nc1nc(-c2sc(NC(=O)CC(C)C)nc2C)cs1,"inconclusive: 15.1 µM [inhibitor, partial curve]"
20,COc1ccc(-c2noc(-c3ccc(N4CCOCC4)c([N+](=O)[O-])c3)n2)cc1OC,"inconclusive: 16.9 µM [inhibitor, partial curve]"
21,COC(=O)c1ccc(NC(=S)NNC(=O)c2ccccc2)cc1,active: 23.9 µM
22,CNC(=S)N/N=C(\C)c1ccc(C(C)(C)C)cc1,"inconclusive: 30.1 µM [inhibitor, single point]"
23,CCc1nnc(NC(=O)Cc2ccc(OC)c(OC)c2)s1,inactive
24,O=C1CCC(C(=O)N2CCSCC2)CN1CCc1ccccc1 (configuration not stated),inactive

row,Structure (SMILES),Potency
1,Cc1ccccc1-c1ccc(C=Nc2c(C)n(C)n(-c3ccccc3)c2=O)o1,active: 4.78 µM
2,CCNC(=O)c1ccc(OCC(=O)Nc2ccc(F)cc2)c(OC)c1,inactive
3,O=C(NCc1cccnc1)Nc1ccc2c(c1)OCO2,"inconclusive: 37.9 µM [inhibitor, single point]"
4,C/C(=N\NC(=O)c1ccc2c(c1)OCO2)c1ccc(O)cc1,"inconclusive: 16.9 µM [inhibitor, partial curve, poor fit]"
5,CC1(C)Cc2nc3oc4c(SCC(N)=O)ncnc4c3cc2CO1,"inconclusive: 30.1 µM [inhibitor, single point]"
6,CSc1nnc(NC(=O)c2ccc(C)c(S(=O)(=O)N3CCOCC3)c2)s1,"inconclusive: 5.36 µM [inhibitor, full curve]"
7,COc1ccccc1-c1nnc(NC(=O)c2ccc3c(c2)OCO3)s1,inactive
8,c1ccc(N/N=C(\Cc2ncc[nH]2)c2ccccc2)cc1,"inconclusive: 26.9 µM [inhibitor, partial curve, poor fit]"
9,COc1ccc(C)cc1NC(=O)C(CCSC)NS(=O)(=O)c1ccc2c(c1)oc(=O)n2C (configuration not stated),inactive
10,COc1ccccc1OCc1nc(-c2ccc([N+](=O)[O-])cc2)no1,"inconclusive: 23.9 µM [inhibitor, partial curve, poor fit]"
11,O=C(O)c1ccc(Nc2nc(-c3ccccc3)nc3ccccc23)cc1,active: 21.3 µM
12,c1ccc2c(-c3nc4ncccc4o3)cccc2c1,"inconclusive: 19 µM [inhibitor, partial curve]"
13,O=C(Nc1cccnc1)OC1CCCCC1,inactive
14,O=C(NNC(=O)c1cccs1)c1ccc(Br)cc1,"inconclusive: 16.9 µM [inhibitor, partial curve, poor fit]"
15,CCOC(=O)c1cc(-c2ccccc2)nn1Cc1ccccc1,"inconclusive: 12 µM [inhibitor, partial curve]"
16,CCOc1ccc(-c2cc(C(=O)NN)[nH]n2)cc1,"inconclusive: 21.3 µM [inhibitor, partial curve]"
17,Cc1cccc(NC(=O)Cn2c(=O)n(CCc3c[nH]c4ccccc34)c(=O)c3cccnc32)c1,"inconclusive: 9.53 µM [inhibitor, partial curve, poor fit]"
18,O=C(Nc1cccc(O)c1)c1cnn2cccnc12,"inconclusive: 23.9 µM [inhibitor, single point]"
19,CN(C)S(=O)(=O)c1cccc(NC(=O)c2cnccn2)c1,inactive
20,O=C(Nc1nnc(-c2ccc(Br)cc2)o1)c1cccc(N2C(=O)CCC2=O)c1,active: 12 µM
21,O=C(O)c1cccc(-n2cccc2/C=C/[N+](=O)[O-])c1,"inconclusive: 10.7 µM [inhibitor, partial curve, poor fit]"
22,Cc1ccc(C2C(C#N)=C(N)SC(N)=C2C#N)o1,"inconclusive: 37.9 µM [inhibitor, partial curve, poor fit]"
23,COc1ccc(C(=O)c2c3ccccc3[n+]([O-])n2Cc2ccc(C(N)=O)cc2)cc1,"inconclusive: 16.9 µM [inhibitor, partial curve, poor fit]"
24,Brc1ccccc1-c1nnc(COc2ncnc3c2cnn3-c2ccccc2)o1,"inconclusive: 30.1 µM [inhibitor, partial curve, poor fit]"
